Test results published in PubChem BioAssay AID588855 (National Center for Advancing Translational Sciences (NCATS), 2011).
Out of some 410,000 compounds screened, about 5,000 (1.2%) were called active. Inconclusive results, whose numbers are uncertain, are shown with a selection of clear calls. Calls follow the shape of the dose curve; as a rule, active = well fitted inhibition curve with a large enough effect; inconclusive = small, poorly fitted or top-dose-only effect; inactive = no such curve, though single readings can be large or run the other way. Potencies beside an inconclusive call are fits to weak or partial responses and may not hold up.

test: qHTS for Inhibitors of TGF-b; conditions: HepG2 CAGA-GFP TGF-b/SMAD3 reporter, GFP fluorescence, 18 h, TGF-beta stimulated, 500 pg/mL final; series mostly up to 46.1 µM; also: nearly all actives have a fitted effect of over 65% in size
In short: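 Cell-based qHTS in HEPG2 carrying a CAGA-GFP Smad reporter; compounds added before 500 pg/mL final TGF-beta, 18 h incubation at 37 degrees C, GFP fluorescence quantified per cell by imaging cytometry.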
Potency is read from the fitted curve at half-maximal effect; tags tell the direction and shape of the fitted curve.

Question: For `C=CCn1c(N)c(C(=O)NCC2CCCO2)c2nc3ccccc3nc21` (stereo not given), which Potency is on record?
Answer: inconclusive: 14.1 µM [inhibitor, single point]

Question: For `CCN(c1ccccc1)S(=O)(=O)c1ccc(C(=O)N2CCN(c3ccccc3)CC2)cc1`, which Potency is on record?
Answer: inconclusive: 3.98 µM [inhibitor, full curve, poor fit]

Question: For `CC(=O)c1c(C)n(-c2ccccc2)c2ccc(OCC(N)=O)cc12`, which Potency is on record?
Answer: inactive

Question: With `COc1cc(NC(=S)Nc2ccc(Br)cc2Cl)c(OC)cc1Cl` as the compound, how does the Potency read?
Answer: inconclusive: 35.5 µM [inhibitor, single point]

Question: Which Potency does the source give for `O=c1[nH]c(CSc2nnc(-c3ccncc3)n2Cc2ccco2)nc2ccccc12` here?
Answer: inconclusive: 12.6 µM [inhibitor, single point]

Question: With `Cc1occc1C(=O)NC1CCCc2ccccc21` (stereo not given) as the compound, how does the Potency read?
Answer: inconclusive: 35.5 µM [inhibitor, single point]

Question: Which Potency does the source give for `CN(C(=O)CSc1nncn2c1cc1occc12)c1ccccc1` here?
Answer: inconclusive: 22.4 µM [inhibitor, single point]

Question: Which Potency does the source give for `CCCCNC(=O)c1onc(CSc2cc(C)ccc2C)c1C(=O)O` here?
Answer: inconclusive: 0.126 µM [inhibitor, full curve, poor fit]

Question: With `CCOC(=O)[C@@H]1[C@H]2COc3ccccc3[C@@H]2N2C(=O)N(c3ccc(Cl)cc3)C(=O)[C@@]12C` as the compound, how does the Potency read?
Answer: inactive

Question: For `C(=N\Nc1nc(-c2ccccn2)nc2ccccc12)/c1ccccc1`, which Potency is on record?
Answer: active: 1.78 µM

Question: For `Cc1cccc(NC(=O)C2CCN(C(=O)c3ccc(Cl)cc3)CC2)n1`, which Potency is on record?
Answer: inconclusive: 14.1 µM [inhibitor, single point]

Question: For `[O-][N+](=Cc1ccccc1)CC1(O)CCCCC1`, which Potency is on record?
Answer: inactive

Question: For `CC(=O)Nc1cccc(-c2csc(Nc3ccccn3)n2)c1`, which Potency is on record?
Answer: inconclusive: 35.5 µM [inhibitor, single point]

Question: For `CCOC(=O)CSc1nnc(-c2ccc(OC)cc2)o1`, which Potency is on record?
Answer: inactive

Question: Which Potency does the source give for `O=C(NNC(=S)NC(=O)c1ccccc1[N+](=O)[O-])c1ccccc1O` here?
Answer: inactive

Question: With `Cc1ccc(C)c(C(O)c2ncc(-c3ccc(F)cc3)[nH]2)c1` (stereo not given) as the compound, how does the Potency read?
Answer: inactive

Question: Which Potency does the source give for `C=CC[C@H](CC(=O)N[C@H](CO)Cc1ccccc1)C(=O)N[C@H](COC(=O)[C@@H](CC=C)CC(=O)OC(C)(C)C)Cc1c[nH]c2ccccc12` here?
Answer: inactive

Question: Which Potency does the source give for `CCCN1C(=O)SC(CC(=O)Nc2ccc(C)cc2)C1=O` (stereo not given) here?
Answer: inactive

Question: Which Potency does the source give for `Oc1ccc(/C=N/Nc2cccc3cccnc23)c(O)c1` here?
Answer: inconclusive: 35.5 µM [inhibitor, single point]

Question: For `Brc1ccc(CN2CCc3nc(Nc4ccccc4)ncc3C2)s1`, which Potency is on record?
Answer: inconclusive: 25.1 µM [inhibitor, single point]

Question: For `O=[N+]([O-])c1cccc(-c2nc(NCc3ccccc3)c3ccccc3n2)c1`, which Potency is on record?
Answer: inactive

Question: With `Cc1c(CCO)c(=O)n2n1CCCC2` as the compound, how does the Potency read?
Answer: inconclusive: 3.16 µM [inhibitor, single point]

Question: Which Potency does the source give for `OC(c1ccccc1)(c1nc(-c2ccc3c(c2)OCO3)cs1)C(F)(F)F` (stereo not given) here?
Answer: inconclusive: 35.5 µM [inhibitor, single point]

Question: With `COc1cccc2cc(C(=O)Nc3ccccc3C)/c(=N/O)oc12` as the compound, how does the Potency read?
Answer: inconclusive: 20 µM [inhibitor, partial curve, poor fit]

Question: For `CC(C)C[C@H](NC(=O)c1nc[nH]c1C(=O)NCc1ccccc1)C(=O)OC(C)(C)C`, which Potency is on record?
Answer: active: 11.2 µM

Question: With `Cc1c(NS(=O)(=O)c2cccs2)cccc1-c1nc2cccnc2s1` as the compound, how does the Potency read?
Answer: inconclusive: 3.16 µM [inhibitor, partial curve]

Question: For `COc1ccc2nc(N=Nc3ccc(O)c4ccccc34)sc2c1`, which Potency is on record?
Answer: inconclusive: 5.01 µM [inhibitor, full curve]

Question: For `CC1CC(C)(C)CC2(C1)NC(=O)N(CC(=O)Nc1nccs1)C2=O` (stereo not given), which Potency is on record?
Answer: inconclusive: 35.5 µM [inhibitor, single point]

Question: For `COc1ccc(N(CC(=O)Nc2ccccc2C(N)=O)S(=O)(=O)c2ccc(C)c([N+](=O)[O-])c2)cc1`, which Potency is on record?
Answer: inactive

Question: For `CCC(C)NC(=O)c1cnn2c1NC(c1cccs1)CC2C(F)(F)F` (stereo not given), which Potency is on record?
Answer: inactive

Question: Which Potency does the source give for `CCOC(=O)COc1ccccc1/C=C\[N+](=O)[O-]` here?
Answer: active: 5.62 µM

Question: With `N#Cc1nc(NCC(F)F)nc(Nc2cc(F)cc(F)c2)n1` as the compound, how does the Potency read?
Answer: active: 15.8 µM

Question: Which Potency does the source give for `Cc1ccccc1COCCN1CCN(S(=O)(=O)c2ccccc2)CCC1=O` here?
Answer: inconclusive: 0.501 µM [inhibitor, full curve, poor fit]

Question: Which Potency does the source give for `O=C(CN1CCN(c2nc(-c3ccc(F)cc3)cs2)CC1)NCc1ccc2c(c1)OCO2` here?
Answer: inconclusive: 15.8 µM [inhibitor, partial curve, poor fit]

Question: For `CCc1nnc(NC(=O)CSc2nnnn2-c2cccc(C(C)=O)c2)s1`, which Potency is on record?
Answer: inconclusive: 35.5 µM [inhibitor, single point]

Question: Which Potency does the source give for `CCOC(=O)c1cc(-c2ccc(F)cc2)n(CCC(=O)Nc2nc3cc(C)c(C)cc3s2)c1C` here?
Answer: inconclusive: 0.0891 µM [inhibitor, full curve, poor fit]

Question: Which Potency does the source give for `Cc1ccc2nccnc2c1` here?
Answer: active: 8.91 µM

Question: With `COc1cc(C)ccc1OCc1cc(C(=O)N2CCN(C3CCCCC3)CC2)no1` as the compound, how does the Potency read?
Answer: inconclusive: 35.5 µM [inhibitor, single point]

Question: With `Cc1ccnc(OC(C(=O)O)C(OCCc2ccccc2)(c2ccccc2)c2ccccc2)n1` (stereo not given) as the compound, how does the Potency read?
Answer: inconclusive: 12.6 µM [inhibitor, partial curve, poor fit]

Question: With `COc1ccc(OCc2ccc(-c3nc(C#N)c(NCc4ccc(F)cc4)o3)o2)cc1` as the compound, how does the Potency read?
Answer: inconclusive: 20 µM [inhibitor, single point]

Question: Which Potency does the source give for `O=C(COC(=O)c1ccccc1)Nc1ccccc1N1CCOCC1` here?
Answer: inconclusive: 3.55 µM [inhibitor, single point]

Question: Which Potency does the source give for `COc1cccc(CNC(=O)Nc2cn(CC(C)C)c(=O)c3ccccc23)c1` here?
Answer: inactive

Question: For `COC(=O)COn1c(-n2nc(C)cc2C)nc2ccccc2c1=O`, which Potency is on record?
Answer: inactive

Question: For `Cc1[nH]n(C(N)=S)c(=O)c1N=Nc1cccc([N+](=O)[O-])c1C`, which Potency is on record?
Answer: inconclusive: 35.5 µM [inhibitor, single point]

Question: Which Potency does the source give for `COc1ccc(-n2c(CC3C(=O)Nc4ccc(C)cc43)nc3ccccc3c2=O)cc1` (stereo not given) here?
Answer: inactive

Question: Which Potency does the source give for `O=C(NCc1ccccc1Cl)c1ccc2c(c1)ncn2-c1cccc(F)c1` here?
Answer: inactive

Question: For `O=C(c1cccs1)N1CCCc2cc(NS(=O)(=O)c3ccc(Br)cc3)ccc21`, which Potency is on record?
Answer: inconclusive: 17.8 µM [inhibitor, single point]

Question: For `COc1cc(OC)nc(NC(=S)NC(=O)c2ccccc2)n1`, which Potency is on record?
Answer: inconclusive: 0.1 µM [inhibitor, full curve, poor fit]

Question: For `Cc1ccc(C)c(CN2CCC(CNC(=O)C(CC(C)C)N3Cc4ccccc4C3=O)CC2)c1` (stereo not given), which Potency is on record?
Answer: inconclusive: 35.5 µM [inhibitor, single point]

Question: For `Cc1cc(NC(=O)Cc2c(F)cccc2Cl)no1`, which Potency is on record?
Answer: inactive

Question: For `CC1=NN(c2nc(-c3ccc(C)cc3)cs2)C(=O)C1N=Nc1ccc(C(N)=O)cc1` (stereo not given), which Potency is on record?
Answer: inconclusive: 5.62 µM [inhibitor, single point]

Question: With `CCN1CCCC1CNC(=O)c1cc2c(-c3ccc(Cl)cc3)nn(C)c2s1` (stereo not given) as the compound, how does the Potency read?
Answer: inconclusive: 35.5 µM [inhibitor, single point]

Question: Which Potency does the source give for `COc1ccc(C(C)NC(=O)CN(c2cc(OC)ccc2OC)S(=O)(=O)c2ccccc2)cc1` (stereo not given) here?
Answer: inactive

Question: For `COc1ccc2[nH]c3c(c2c1)CCN1C(=O)C(CC(=O)NCc2ccc(OC)c(OC)c2)C[C@H](C(=O)N2CCCCC2)[C@@]31CCc1ccccc1` (stereo not given in full), which Potency is on record?
Answer: inconclusive: 35.5 µM [inhibitor, single point]

Question: Which Potency does the source give for `C=CC[C@H](CC(=O)NCCO)C(=O)N[C@@H](COC(=O)[C@@H](CC=C)Cc1ccc(F)cc1)Cc1ccccc1` here?
Answer: inactive

Question: For `Cc1ccc(S(=O)(=O)Nc2ccccc2CNc2ccccn2)cc1`, which Potency is on record?
Answer: inconclusive: 11.2 µM [inhibitor, partial curve, poor fit]

Question: Which Potency does the source give for `O=C(Nc1cccnc1)c1cc2cc(Br)ccc2oc1=O` here?
Answer: inconclusive: 5.62 µM [inhibitor, single point]

Question: For `CNC(=O)CN(Cc1ccccc1)S(=O)(=O)c1ccc(Cl)cc1`, which Potency is on record?
Answer: inactive

Question: For `COc1ccccc1C(=O)Nc1ccc(S(=O)(=O)N2CCC(C)CC2)cc1`, which Potency is on record?
Answer: inactive

Question: For `Cc1cccc(NC(=O)c2ccc(COc3ccc4ccccc4c3)o2)n1`, which Potency is on record?
Answer: inconclusive: 15.8 µM [inhibitor, single point]

Question: For `Fc1ccc(-c2csc(N3CCC(c4ccccc4)C3)n2)cc1` (stereo not given), which Potency is on record?
Answer: inconclusive: 6.31 µM [inhibitor, single point]

Question: Which Potency does the source give for `CCN(CC)S(=O)(=O)c1ccc(-c2nnc(SC)o2)cc1` here?
Answer: inconclusive: 15.8 µM [inhibitor, single point]

Question: Which Potency does the source give for `CC1=C(c2ccc(C(C)C)cc2)S(=O)(=O)NC1=NCc1ccc(OC(C)C)cc1` here?
Answer: inactive

Question: Which Potency does the source give for `c1csc(-c2nn3c(Cn4nnc5ccccc54)nnc3s2)c1` here?
Answer: inactive

Question: For `CCCCN(C)C(=O)c1cc2cc3ccc(OC)cc3nc2o1`, which Potency is on record?
Answer: inactive

Question: With `C=CCn1c(SCC(=O)c2ccc(O)c(O)c2)nnc1-c1ccc(C)cc1` as the compound, how does the Potency read?
Answer: inconclusive: 25.1 µM [inhibitor, partial curve, poor fit]

Question: Which Potency does the source give for `CC1=NN(C(=O)COc2ccccc2C)C(O)(c2ccc(Cl)cc2)C1` (stereo not given) here?
Answer: inconclusive: 12.6 µM [inhibitor, partial curve]

Question: With `CCOC(=O)C1=C(C)N=c2s/c(=C/c3ccco3)c(=O)n2C1c1cccc(OC)c1` (stereo not given) as the compound, how does the Potency read?
Answer: inactive

Question: Which Potency does the source give for `Cc1[nH]c2ccccc2c1C(=O)C(C)Sc1nnc(C2CC2)o1` (stereo not given) here?
Answer: inconclusive: 35.5 µM [inhibitor, single point]

Question: For `COc1c(S(=O)(=O)N2CCN(c3ccc(F)cc3)CC2)ccc(Cl)c1Cl`, which Potency is on record?
Answer: inconclusive: 10 µM [inhibitor, partial curve, poor fit]
